In PubChem BioAssay AID360 (National Center for Advancing Translational Sciences (NCATS), 2006):
About 550 (1.1%) of roughly 48,000 compounds were called active. About 4% were inconclusive and are not listed. No stated cut-off is given here; in the data, active means potency below about 15 µM; inconclusive means mostly about 16 µM to 33 µM; inactive means weaker than that. The list shows a part of the results.

Target: Lysosomal acid glucosylceramidase (Homo sapiens) (UniProt P04062)
Experiment: Glucocerebrosidase;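 further: the screen sought inhibitors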
Details: purified enzyme, resorufin glucoside fluorescence (screen aimed at inhibitors), 20 min
In short: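 Wild-type enzyme at 0.2 nM final in 50mM citric acid/KH2PO4, 10mM sodium taurocholate, 0.01% tween-20, pH 5.9, with resorufin beta-D-glucopyranoside at 30 uM final. Compounds titrated, 20 min at RT, red fluorescence read; AC50 from titration.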
Potency means the concentration at half of the fitted maximal effect.

Sequence of UniProt P04062 (P04062 whole entry, looked up): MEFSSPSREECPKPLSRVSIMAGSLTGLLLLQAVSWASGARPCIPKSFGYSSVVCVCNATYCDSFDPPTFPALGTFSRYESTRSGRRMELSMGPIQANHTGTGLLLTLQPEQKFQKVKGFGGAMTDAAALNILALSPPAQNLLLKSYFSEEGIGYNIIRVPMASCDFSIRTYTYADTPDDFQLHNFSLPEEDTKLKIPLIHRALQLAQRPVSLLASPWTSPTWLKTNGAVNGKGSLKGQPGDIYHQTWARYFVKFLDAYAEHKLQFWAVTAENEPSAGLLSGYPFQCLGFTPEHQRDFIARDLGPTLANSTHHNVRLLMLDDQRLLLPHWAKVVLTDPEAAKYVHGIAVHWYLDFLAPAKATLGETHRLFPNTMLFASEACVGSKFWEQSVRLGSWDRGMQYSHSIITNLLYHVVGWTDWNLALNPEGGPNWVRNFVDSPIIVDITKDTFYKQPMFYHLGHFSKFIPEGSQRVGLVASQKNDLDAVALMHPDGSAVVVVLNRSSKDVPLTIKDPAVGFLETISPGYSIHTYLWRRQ

Potency, inactive:
Cc1cc(NS(=O)(=O)c2ccc(NC(=O)Nc3ccc4c(c3)OCO4)cc2)no1 > 76.9 µM
O=S(=O)(c1cccc(-c2nnc(SC(F)F)n2-c2ccccc2)c1)N1CCCCC1 > 76.9 µM
Cc1sc2nc(N)sc2c1C > 76.9 µM
O=C(COC(=O)c1cncc(Br)c1)NCCC1=CCCCC1 > 76.9 µM
Cn1cnnc1SCC(=O)c1cc2ccccc2oc1=O > 76.9 µM
CC(C)(C)NC(=O)c1sccc1C(=O)O > 76.9 µM
CC(NC(=O)COc1ccccc1)C(=O)OCC(=O)c1cc2ccccc2o1 (stereo unspecified) > 76.9 µM
COC(=O)C1CCN(C(=O)N2CCOCC2)CC1 > 76.9 µM
Cn1c(SCC(=O)Nc2nccs2)nnc1C12CC3CC(CC(C3)C1)C2 > 76.9 µM
CCOc1ccc(N2C(=O)CC(Sc3nc(C)cc(C)c3C#N)C2=O)cc1 (stereo unspecified) > 76.9 µM
CCN(CC)CCn1c2ccccc2c2cnc(N=CN(C)C)c(C#N)c21 > 76.9 µM
O=C(CCN1CCN(c2ccccc2)CC1)Nc1nccs1 > 76.9 µM
Cc1nc2ccc(S(=O)(=O)NCC(=O)O)cc2s1 > 76.9 µM
Cc1sc2ncnc(SCC(=O)N3CCCC3=O)c2c1C > 76.9 µM
CCOC(=O)c1cnc2c(C(=O)OC)cccc2c1NCc1ccco1 > 76.9 µM
CS(=O)(=O)Nc1ccc(C(=O)NCc2ccco2)cc1 > 76.9 µM
Cc1cccc(OCc2nc(C#N)c(NCc3ccc4c(c3)OCO4)o2)c1 > 76.9 µM
Cc1cc2oc(C(=O)NC3CCS(=O)(=O)C3)c(C)c2cc1C (stereo unspecified) > 76.9 µM
Cc1nc(C)n(CC(O)COc2ccc(C(=O)c3ccccc3)cc2)n1 (stereo unspecified) > 76.9 µM
CCCc1nnc(SCC(=O)O)n1/N=C/c1ccc2c(c1)OCO2 > 76.9 µM
COc1ccc(NC2=NCCC(=O)N2Cc2cccs2)cc1 > 76.9 µM
Cn1c(=O)[nH]c(=O)c2c1nc(NCCCn1ccnc1)n2CCOc1ccccc1 > 76.9 µM
N#Cc1c(N)sc2c1CCN(C(=O)OCc1ccccc1)C2 > 76.9 µM
CCOC(=O)CSc1nnc(Cn2nnc(-c3ccccc3)n2)n1C > 76.9 µM
Cc1cc2ccccc2nc1SCC(=O)N1CCCC1 > 76.9 µM
Cc1nnc(SCc2cn3ccsc3n2)n(N)c1=O > 76.9 µM
O=C(Nc1ccc(Cl)cc1)NC1(C(=O)NCCCN2CCOCC2)CCCCC1 > 76.9 µM
c1ccc(-c2noc(-c3cccnc3)n2)nc1 > 76.9 µM
CCn1c(=O)c(C(=O)Nc2cccnc2)c(O)c2ccccc21 > 76.9 µM
COc1ccc(-c2noc(CCC(=O)NCc3cccnc3)n2)cc1 > 76.9 µM
O=C(O)C(CCCCN1C(=O)C2C3C=CC(C3)C2C1=O)N1C(=O)C2C3C=CC(C3)C2C1=O (stereo unspecified) > 76.9 µM
CC(OC(=O)c1cccs1)C(=O)NCc1cccs1 (stereo unspecified) > 76.9 µM
O=P1(O)C=C(c2ccccc2)NC(c2ccccc2)=C1 > 76.9 µM
CN(C)S(=O)(=O)c1ccc(C(=O)NCc2ccccc2)cc1 > 76.9 µM
CCOC(=O)C1CCCN(C(=O)Cc2c(F)cccc2Cl)C1 (stereo unspecified) > 76.9 µM
COCCCN(C(C)=O)c1nc(-c2ccccc2)cs1 > 76.9 µM
Cc1nc2cccc(C(=O)NCc3ccccc3)c2o1 > 76.9 µM
Cc1ccc(-c2nc(CN(C)C)cc(CN(C)C)c2O)cc1 > 76.9 µM
CC(C)(C)Nc1nc(C(N)=O)nc(N2CCOCC2)n1 > 76.9 µM
CC1Cc2cc(/C(O)=C3/C(=O)C(=O)N(CCN4CCOCC4)C3c3cccc(O)c3)ccc2O1 (stereo unspecified) > 76.9 µM
Cc1c(/C(O)=C2\C(=O)C(=O)N(CCCN(C)C)C2c2ccncc2)cnn1-c1ccccc1 (stereo unspecified) > 76.9 µM
O=C(CNC(=O)c1cccs1)OCC(=O)c1cccs1 > 76.9 µM
Cc1ccc(NC(=O)Cn2c(=O)n(Cc3ccco3)c(=N)c3c4c(sc32)COC(C)(C)C4)cc1 > 76.9 µM
O=c1[nH]c(SCc2n[nH]c(=S)n2-c2ccccc2)nc2ccccc12 > 76.9 µM
Cc1onc(-c2ccccc2)c1C(=O)Nc1sc2c(c1C(N)=O)CCC2 > 76.9 µM
O=C(NCc1ccccn1)C1CCN(S(=O)(=O)N2CCCC2)CC1 > 76.9 µM
CCOC(=O)N1CCC(NC(=O)C2CCN(S(=O)(=O)c3cccs3)CC2)CC1 > 76.9 µM
Cc1ccc(C)c(-n2c(SCC(=O)NCC3CCCO3)nnc2-c2ccoc2C)c1 (stereo unspecified) > 76.9 µM
O=C(CCn1nnc2ccccc21)N1CCN(c2ccccc2)CC1 > 76.9 µM
COc1ccc(CCN2C(=O)CC(NCc3ccc4c(c3)OCO4)C2=O)cc1OC (stereo unspecified) > 76.9 µM
CCC(CC)C(=O)NCCc1cc2c(OC)ccc(OC)c2[nH]c1=O > 76.9 µM
O=C(NC1CCCCCC1)C1CCN(S(=O)(=O)c2ccccc2)CC1 > 76.9 µM
Cc1cc(NC(=O)c2cc(-c3cccnc3)nc3c(C)c(C)ccc23)no1 > 76.9 µM
Cc1nc2oc3c(NCC4CCCO4)ncnc3c2c2c1COC(C)(C)C2 (stereo unspecified) > 76.9 µM
CSc1nsc(SCC(=O)N2CCN(c3ccccc3)CC2)n1 > 76.9 µM
COc1cccc2cc(C(=O)C3=C(O)C(=O)N(Cc4ccco4)C3c3cccnc3)oc12 (stereo unspecified) > 76.9 µM
COc1cccc(C2=CC(c3ccc(C)cc3)n3ncnc3N2)c1 (stereo unspecified) > 76.9 µM
Cn1nnc2cc(NC(=O)N3CCN(c4ccccn4)CC3)ccc21 > 76.9 µM
Cc1cccc(OCc2n[nH]c(=S)o2)c1 > 76.9 µM
CCOC(=O)C1=C(C)Nc2ncnn2C1c1ccccc1F (stereo unspecified) > 76.9 µM
Cc1nc(CSc2nnc3scc(-c4ccc(Cl)cc4)n23)cs1 > 76.9 µM
Cc1ccc2c(COC(=O)C3=COCCO3)cc(=O)oc2c1 > 76.9 µM
C=CCN1C(=O)CN=C1Nc1cccc(C)c1 > 76.9 µM
O=P(c1ccccc1)(c1ccccc1)C(c1ccco1)N1CCOCC1 (stereo unspecified) > 76.9 µM
COc1cc(C#CC#CCN2CCCCC2)ccc1O > 76.9 µM
O=C(c1ccco1)N1CCN(C(c2ccccc2F)c2nnnn2CC2CCCO2)CC1 (stereo unspecified) > 76.9 µM
Cc1ccc(S(=O)(=O)CCc2nnc(NC(=O)c3cnccn3)s2)cc1 > 76.9 µM
CC(=O)c1c(C)[nH]c(C(=O)CSc2nnc(C3CCCCC3)n2N)c1C > 76.9 µM
O=C(c1scc2c1CCCC2)N1CCCCC1 > 76.9 µM
O=C1OC(NC(=O)c2ccccc2)C(N2CCOCC2)=C1Cl (stereo unspecified) > 76.9 µM
O=C(Cn1cc(C(=O)c2cccs2)c2ccccc21)NCC1CCCO1 (stereo unspecified) > 76.9 µM
Cc1ccc(CS(=O)(=O)CCC(=O)N2CCOCC2)cc1 > 76.9 µM
O=C(Nc1ccc(F)cc1Cl)c1ccc2c(=O)n3c(nc2c1)CCCCC3 > 76.9 µM
COC(=O)CC1=C(C(=O)OC)C(c2cccs2)C(C#N)=C(N)O1 (stereo unspecified) > 76.9 µM
CCCNC(=O)c1ccccc1NC(=O)CN(c1ccccc1OCC)S(C)(=O)=O > 76.9 µM
COc1ccc(OC)c(C2N(c3ccc(Cl)cc3)C(=O)C3CCCN32)c1 (stereo unspecified) > 76.9 µM
Cc1ccc(NCc2nnc(SCc3ccc(C#N)cc3)n2Cc2ccco2)c(C)c1 > 76.9 µM
COc1ccc(-c2cc(C(F)(F)F)nc(SCC(=O)N3CC(C)OC(C)C3)n2)cc1OC (stereo unspecified) > 76.9 µM
CCOC(=O)C1C(=O)NCC2CCCC21 (stereo unspecified) > 76.9 µM
CCOc1cccc2c1OC1(C)CC2NC(=O)N1c1cccc(Cl)c1 (stereo unspecified) > 76.9 µM
CC(NC(=O)c1ccncc1)C(c1cccs1)N1CCOCC1 (stereo unspecified) > 76.9 µM
CCOC(=O)c1sc2nc3n(c(=O)c2c1C)CCC(C)CC3 (stereo unspecified) > 76.9 µM
NC(=O)C1CCN(C(=O)N2c3ccccc3Sc3ccccc32)CC1 > 76.9 µM
O=C(NCc1nnc(SCC(=O)N2CCN(c3ccccc3)CC2)o1)c1ccco1 > 76.9 µM
CCOC(=O)N1CCC(NC(=O)c2cc(C)c3c(C)nn(-c4ccccc4)c3n2)CC1 > 76.9 µM
Cc1ccc2cccc(OCC(=O)NCc3ccco3)c2n1 > 76.9 µM
CC1Cc2ccccc2N1C(=O)C1CCN(S(=O)(=O)Cc2ccccc2)CC1 (stereo unspecified) > 76.9 µM
CCOC(=O)N1CCC(NC(=O)CSc2cc(=O)n(C)c3ccccc23)CC1 > 76.9 µM
COC(=O)c1cccc(N2C(=O)c3cccnc3C2=O)c1 > 76.9 µM
COc1ccc(-c2noc(CSc3nnc(CCc4ccccc4)n3-c3ccccc3)n2)cc1OC > 76.9 µM
O=[n+]1c2c(n([O-])c3cc(F)ccc31)CCCC2 > 76.9 µM
